Results taken from PubChem BioAssay AID2060619 (Molecular Pharmacology Branch, DTP, NCI, 2025).
For part of its entries the source gives two or more results. The other results are left out here. The source may hold further records. The values listed for one entry are repeats (runs, samples, wells, individuals or studies). Additions like (4×) say how often a value occurs here.

System: 323965-272-R-J2-PDC complex spheroid viability
Assay: Anticancer human tumor 323965-272-R-J2-PDC patient-derived pancreatic carcinoma cell line growth inhibition [CLK]
Details: for viability, T/C: stronger effect = lower value
Excerpt: A high-throughput screen of multi-cell type tumor spheroids was designed to identify active combinations of […] and targeted small molecules. Complex spheroids include a stromal component modeled by human endothelial cells (HUVEC) and fibroblasts modeled by human mesenchymal stem cells (MSCs). The concentration ranges selected for each drug and investigational agent were based upon clinically achievable concentrations if the clinical Cmax of the agent was known.
Compounds. The drugs and investigational agents: cirtuvivint (SM08502; NSC835563), CC-671 (NSC850746), vemurafenib (NSC761431), tapotoclax (NSC804041), sotorasib (NSC818433), adagrasib (NSC831453), MRTX-1133 (NSC836407), BAY2416964 (NSC825713), copanlisib (NSC816437), inavolisib (NSC800729), abemaciclib (NSC768073), osimertinib (NSC779217), entinostat (NSC756642), eltanexor (KPT-8602, NSC794443), venetoclax (NSC766270), ceralasertib (NSC777638), bortezomib (NSC756655), olaparib (NSC753686), talazoparib (NSC767125), alisertib (NSC759677), peposertib (NSC802822), gemcitabine (NSC613327), 5-fluorouracil (NSC19893), SN-38 (NSC673596), oxaliplatin (NSC266046), paclitaxel (NSC125973), and doxorubicin (NSC123127), were obtained from the National Cancer Institute (NCI) Developmental Therapeutics Program Chemical Repository. The FDA-approved anticancer drug set is available from the Developmental Therapeutics Program at https://dtp.cancer.gov/organization/dscb/obtaining/available plates.htm. […] The stock solutions were prepared in dimethyl sulfoxide (DMSO, Sigma-Aldrich, St. Louis, MO, cat. D2650), except for the platinum complexes which were prepared in saline (Quality Biological, Gaithersburg, MD, cat. 114-055-101), at 800-fold the tested concentration and stored at -70 degrees C prior to their use. All drugs and investigational agents were tested over a range starting from a high concentration at or near the clinical Cmax and decreasing in half-log increments. If the clinical Cmax for an agent had not been determined, the highest concentration tested was 10 microM.
Cell Culture. […]
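Note: spheroids exposed to agents for seven days before readout.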
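Throughout, for viability, T/C: percent of DMSO vehicle control wells so 100% = untreated growth.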

Compound	viability, T/C (compound alone 10 µM)	viability, T/C (compound alone 0.0316 µM)	IC50 (drug combinations, compound alone, run of 08/15/2023)
C=C(F)C(=O)N1CCN(c2nc(OCC3CCCN3C)nc3c2CCN(c2cccc4cccc(Cl)c24)C3)CC1CC#N (stereo not drawn)	40.6% and 9.86%		
CNC(=O)c1ccc(Nc2nc(OC3CCCC3)c3c(-c4ccc5nc(C)oc5c4)c[nH]c3n2)c(OC)c1		115, 102, 96.2, 126, 96.3 (2×), 103, 113, 87.4, 101, 111, 104%	812 nM, 828 nM, 1.47 µM, 987 nM, 2.27 µM, 1.24 µM, 2.13 µM, 1.59 µM, 613 nM, 2.88 µM, 959 nM, 893 nM
